{
  "source": "PubChem BioAssay AID1347071",
  "about": "(National Center for Advancing Translational Sciences (NCATS), 2019)",
  "note": "The campaign covered roughly 410,000 compounds. About 260 (0.063%) were called active. The inconclusive results got no clear call from the source; some entries with a clear call stand among them for comparison. The call rests on the fitted dose curve; in most records, active means well fitted activation curve with a large enough effect; inconclusive means small, poorly fitted or top-dose-only effect; inactive means no such curve, though single readings can be large or run the other way. No potency is given beside an inconclusive call; the fits are too rough. Potency means the concentration at half of the fitted maximal effect; tags describe the fitted curve by direction and shape.",
  "data": [
    {"assay": "qHTS for compounds that reverse cellular toxicity of Amyloid beta (A-beta) peptide in yeast: Primary Screen; further: nearly all actives have a fitted effect of over 55% in size", "conditions": "yeast expressing A-beta42, growth rescue, OD600, 48 h; growth rescue: at 46.1 µM (top of the series), 0% DMSO, 100% iron-clioquinol control", "method_in_brief": "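Yeast A-beta toxicity model in growth medium with pinned compounds, 48 h at 30 C; growth read as absorbance at 600 nm. Normalized to FeCl3/clioquinol equimolar mix (positive) and DMSO (negative).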", "values": [
      {"smiles": "CCn1cc([N+](=O)[O-])c(C(=O)N2N=C(c3ccccc3)CC2c2ccc([N+](=O)[O-])cc2)n1", "note": "(stereo not given)", "Potency": "inconclusive [activator, partial curve, poor fit]"},
      {"smiles": "O=C(NC1CCCCC1)OC1CC2CC1[C@H]1CCCCN1C2=O", "note": "(stereo not given in full)", "Potency": "inactive"},
      {"smiles": "C=CCC(CC=C)(C(=O)O)c1ccccc1", "Potency": "inconclusive [activator, partial curve]"},
      {"smiles": "COCCn1c(CNC(=O)c2cc(OC)c(OC)c(OC)c2)nc2cccnc21", "Potency": "inactive"},
      {"smiles": "COc1ccc(C(C)(O)c2nc(-c3ccc4c(c3)OCO4)cs2)cc1", "note": "(stereo not given)", "Potency": "inconclusive [activator, partial curve, poor fit]"},
      {"smiles": "O=C(Nc1ccc([N+](=O)[O-])cc1)C1COc2ccccc2O1", "note": "(stereo not given)", "Potency": "active: 8.91 µM"},
      {"smiles": "Brc1ccc(-c2csc(N3CCOCC3)n2)cc1", "Potency": "inconclusive [activator, single point]"},
      {"smiles": "C=CCNC(=S)N/N=C(\\C)c1ccc(-n2ccnc2)cc1", "Potency": "inconclusive [activator, single point]"},
      {"smiles": "CCOC(=O)CSc1nc2ccccc2n1CC(=O)NC(C)(C)C", "Potency": "inactive"},
      {"smiles": "CCOC(=O)c1cnc(NCc2ccc(Cl)cc2)c2ccccc12", "Potency": "inconclusive [activator, single point]"},
      {"smiles": "O=C(Cc1ccc(F)cc1)NCCc1csc(-c2ccc(C(F)(F)F)cc2)n1", "Potency": "inactive"},
      {"smiles": "CCN(CC)S(=O)(=O)c1ccc(C(=O)Oc2ccc3c(c2)OCO3)cc1", "Potency": "inconclusive [activator, single point]"},
      {"smiles": "N/C(=N\\OC(=O)Cc1ccc(-c2ccccc2)cc1)c1cccnc1", "Potency": "inconclusive [activator, single point]"},
      {"smiles": "CCC(=O)N1c2ccc(S(=O)(=O)N3CCN(c4ccccc4Cl)CC3)cc2CC1C", "note": "(stereo not given)", "Potency": "inactive"},
      {"smiles": "CCOC(=O)C1CCCN(S(=O)(=O)c2cc(-c3cc(C)no3)ccc2C)C1", "note": "(stereo not given)", "Potency": "inactive"},
      {"smiles": "Cn1nnc2cc(C(=O)N3CCSCC3)ccc21", "Potency": "inconclusive [activator, partial curve, poor fit]"},
      {"smiles": "Cc1cc(C)nc(Nc2nc(=O)c3ccccc3s2)n1", "Potency": "inconclusive [activator, partial curve]"},
      {"smiles": "CCOC(=O)[C@H]1[C@H]2COc3ccc(C)cc3[C@@H]2N2C(=O)c3cc(Br)ccc3NC(=O)[C@@]12C", "Potency": "inconclusive [activator, partial curve]"},
      {"smiles": "Cc1ccc(Cl)cc1NC(=O)Nc1cn(CC(C)C)c(=O)c2ccccc12", "Potency": "inactive"},
      {"smiles": "Clc1ccc(CSc2nccn2Cc2ccccc2)cc1", "Potency": "inactive"},
      {"smiles": "CCCCn1c(N)c(N(CCOC)C(=O)COC(=O)c2cc(CCC)c(C)s2)c(=O)[nH]c1=O", "Potency": "inconclusive [activator, partial curve, poor fit]"},
      {"smiles": "CCC(C)c1ccc(O)c(NC(=S)NC(=O)c2cccs2)c1", "note": "(stereo not given)", "Potency": "inconclusive [activator, single point]"},
      {"smiles": "COc1ccccc1Cn1c(=O)oc2ccc(C)cc21", "Potency": "inconclusive [activator, single point]"},
      {"smiles": "Cc1nn(CC(O)COc2ccc3c(c2)CCC3)c(C)c1Br", "note": "(stereo not given)", "Potency": "inconclusive [activator, partial curve]"},
      {"smiles": "Cc1ccc(NC(=O)NC(C)c2c(-n3cccc3)sc(C)c2C)cc1F", "note": "(stereo not given)", "Potency": "inconclusive [activator, full curve]"},
      {"smiles": "O=C(Nc1ccccc1)Nc1cccn(Cc2c(F)cccc2Cl)c1=O", "Potency": "inactive"},
      {"smiles": "COc1ccc(NC(=O)C2CCN(C(=O)c3sc4nc[nH]c(=O)c4c3C)CC2)cc1Cl", "Potency": "inactive"},
      {"smiles": "Cc1ccc(F)cc1NC(=O)c1cccc(N(C)C)c1", "Potency": "inconclusive [activator, full curve, poor fit]"},
      {"smiles": "C=CCc1ccccc1OCC(=O)N/N=C/c1ccc(OC(C)=O)cc1OC(C)=O", "Potency": "inactive"},
      {"smiles": "c1ccc(CCNc2nc(-c3ccccn3)cs2)cc1", "Potency": "inconclusive [activator, single point]"},
      {"smiles": "Cc1onc(-c2ccccc2Cl)c1C(=O)NCc1nc(-c2ccc(C(F)(F)F)cc2)no1", "Potency": "inconclusive [activator, single point]"},
      {"smiles": "CCOc1ccccc1NC(=O)Cc1cccs1", "Potency": "inconclusive [activator, partial curve, poor fit]"},
      {"smiles": "COC(=O)CN1C(=S)N(c2ccc(Cl)cc2)C(=O)C1CC(=O)Nc1ccc(F)cc1", "note": "(stereo not given)", "Potency": "inconclusive [activator, partial curve, poor fit]"},
      {"smiles": "CCOc1ccccc1NC(=S)N1CCN(c2cccc(C)c2C)CC1", "Potency": "inconclusive [activator, partial curve, poor fit]"},
      {"smiles": "COc1cc(NC(=O)CSc2nc3nc(C)c(Cc4ccccc4)c(C)n3n2)cc(OC)c1OC", "Potency": "inactive"},
      {"smiles": "COc1ccc(CCC(C)NCC2CCCCC2)cc1", "note": "(stereo not given)", "Potency": "inconclusive [activator, partial curve, poor fit]"},
      {"smiles": "COc1cccc(OCCc2c(C)n[nH]c2C)c1", "Potency": "inconclusive [activator, full curve, poor fit]"},
      {"smiles": "Cc1ccc(C(C)NC(=S)NCc2ccc(F)cc2)c(C)c1", "note": "(stereo not given)", "Potency": "inconclusive [activator, full curve, poor fit]"},
      {"smiles": "COc1ccc(NC(=S)NCCC2=CCCCC2)cc1OC", "Potency": "inconclusive [activator, single point]"},
      {"smiles": "COc1ccc(C(CNC(=O)c2cc(S(=O)(=O)NCc3ccco3)ccc2C)N(C)C)cc1", "note": "(stereo not given)", "Potency": "inconclusive [activator, partial curve, poor fit]"},
      {"smiles": "O=C(COC(=O)c1cc([N+](=O)[O-])ccc1N1CCOCC1)Nc1cc(F)ccc1F", "Potency": "inconclusive [activator, single point]"},
      {"smiles": "COc1ccc(CC(=O)NCCS(=O)(=O)N2CCN(c3ccccc3)CC2)cc1", "Potency": "inactive"},
      {"smiles": "CC(=O)N1c2ccccc2C(C)(C)C2CCC(C)CC21", "note": "(stereo not given)", "Potency": "inconclusive [activator, full curve]"},
      {"smiles": "CN1OC[C@@H]2CN(C(=O)CCc3ccccc3)[C@H](c3ccccc3Br)C[C@@H]21", "Potency": "inactive"},
      {"smiles": "O=C(NC(=S)NCCc1ccccc1)c1cccc(Cl)c1", "Potency": "inconclusive [activator, partial curve, poor fit]"},
      {"smiles": "O=[N+]([O-])c1ccc(N/N=C2\\CC3CC=CC23)cc1", "note": "(stereo not given)", "Potency": "inactive"},
      {"smiles": "O=C(CSc1ccc(-c2ccccn2)nn1)Nc1ccc(F)c(F)c1", "Potency": "inactive"},
      {"smiles": "CCCCn1c(N)c(N(CCC(C)C)C(=O)c2ccccc2-n2cnnn2)c(=O)[nH]c1=O", "Potency": "inactive"},
      {"smiles": "COc1ccc(CSc2nnnn2C)cc1[N+](=O)[O-]", "Potency": "inconclusive [activator, full curve, poor fit]"},
      {"smiles": "COc1ccc(Br)cc1CNCCSc1nnnn1C", "growth rescue": "inconclusive: -41.7% [activator]"},
      {"smiles": "O=S(=O)(c1ccc(OC(F)(F)F)cc1)N1CCC(O)(c2cccc(C(F)(F)F)c2)CC1", "Potency": "inconclusive [activator, single point]"},
      {"smiles": "COc1ccc2nc(NCc3ccc(OC)c(OC)c3OC)sc2c1", "Potency": "inconclusive [activator, single point]"},
      {"smiles": "COc1ccc(C(O)c2nc(-c3cccc(O)c3)cs2)cc1", "note": "(stereo not given)", "Potency": "inconclusive [activator, single point]"},
      {"smiles": "CN(Cc1ccco1)C(=O)c1ccc2c(c1)N(Cc1ccccc1F)C(=O)c1ccccc1S2", "Potency": "inactive"},
      {"smiles": "Cc1ccc(OCC(=O)N(Cc2ccccc2)C(C)C)c([N+](=O)[O-])n1", "Potency": "inactive"},
      {"smiles": "Cc1ccc(Cl)cc1NC(=O)CCC(=O)N1CC(C)Sc2ccccc21", "note": "(stereo not given)", "Potency": "inconclusive [activator, single point]"},
      {"smiles": "COc1ccc(NC(=O)c2ccc(OC)cc2)cc1", "Potency": "inconclusive [activator, single point]"},
      {"smiles": "Cc1ccc(NC(=O)C2CC2c2ccccc2)c([N+](=O)[O-])c1", "note": "(stereo not given)", "Potency": "inconclusive [activator, single point]"},
      {"smiles": "O=C(CSCc1ccc(Cl)cc1)N/N=C/c1ccccc1", "Potency": "inconclusive [activator, full curve]"},
      {"smiles": "OC[C@@H]1CN(Cc2ccc(-c3ccccc3)cc2)C[C@H](n2cnc3c(NCc4ccc(F)cc4)ncnc32)O1", "Potency": "inconclusive [activator, single point]"},
      {"smiles": "CC(C)(C)NC(=O)NC(=O)COC(=O)Cc1coc2ccc3ccccc3c12", "Potency": "inconclusive [activator, single point]"},
      {"smiles": "Cc1ccn2c(Nc3ccc(C(C)C)cc3)c(-c3cccs3)nc2c1", "Potency": "inactive"},
      {"smiles": "Cc1nc2ccc(NC(=O)Cc3cccs3)cc2s1", "Potency": "inconclusive [activator, partial curve]"},
      {"smiles": "COc1cc2[nH]c(C(=O)N3CCN(c4ccccc4F)CC3)cc2c(OC)c1OC", "Potency": "inactive"},
      {"smiles": "CCc1ccc(C(C)NC(=S)NCc2ccc(F)cc2)cc1", "note": "(stereo not given)", "Potency": "active: 4.47 µM"},
      {"smiles": "COc1cccc(-c2cnc3c(NC=O)cc(-c4cc(OC)c(OC)c(OC)c4)cn23)c1", "Potency": "inactive"},
      {"smiles": "COc1cccc(CN(C(=O)Cn2nnc(-c3ccccc3F)n2)C(C(=O)NC(C)(C)C)c2ccncc2)c1", "note": "(stereo not given)", "Potency": "inconclusive [activator, full curve, poor fit]"},
      {"smiles": "CCOc1cc(C)c(S(=O)(=O)N2CCCCC2)cc1C", "Potency": "inconclusive [activator, single point]"},
      {"smiles": "Cn1nccc1NS(=O)(=O)c1ccc(C(C)(C)C)cc1", "Potency": "inconclusive [activator, single point]"},
      {"smiles": "COc1ccc(/C=C/C(=O)c2ccc3c(c2)OCCO3)cc1[N+](=O)[O-]", "Potency": "inactive"}
    ]}
  ]
}
